Patent US20090291088A1, “THERAPEUTIC COMBINATIONS OF ANTI-IGF-1R ANTIBODIES AND OTHER COMPOUNDS” (Biogen Idec MA Inc., priority 2008, published 2009)
Values belong to the molecule of their own block, whether it stands above or below them.

Columns and labels:
[1] = system: NCI-H23; assay: IGF driven tumor cell growth, CELL TITER-GLO, H-23; format: cell-based, human; settings: NCI-H23 lung tumor cell line
Experimental: NCI-H23, Calu-6, Colo-205, Panc-1, BxPC-3 (ATCC) tumor lines were purchased from ATCC. Cell lines were grown in complete growth medium containing RPMI-1640 (ATCC), 10% fetal bovine serum (Irvine Scientific Inc.) and 50 μg/ml of Gentamycin (Gibco, Invitrogen). Trypsin-EDTA solution (Sigma) was used for removal of adherent cells from culture vessels. Phosphate buffered saline, pH 7.2, was from MediaTech Inc The 96-well clear bottom plates for luminescent assay was purchased from Wallac Inc.
Cells grown to 80% monolayers were, trypsinized, washed, resuspended and plated into 96-well plates in 200 μl of 2% growth medium at 8×10^3 cells/well for NCI-H23 and Colo-205 cells; and 5×10^3 cells/well for Calu-6, Panc-1 and BxPC-3 cells. After 24 hours, the culture medium was replaced with 100 μl of serum free medium (SFM), and 50 μl of serially diluted antibodies at 4× concentration was added. […] All treatments were done in triplicates. Cell growth was measured using the CELL TITER-GLO™ Luminescent Cell Viability Assay (Promega, Madison, Wis.). […] Luminescence was detected on Wallac (Boston, Mass.) plate reader.
The ability of the selected murine antibodies to inhibit IGF/IGF-1R dependent in vitro growth of several human tumor lines (Lung, H-23, Calu-6; Pancreas, BxPc-3, Panc-1, MiaPaCa and Colon Colo205) was measured by a proliferation assay described in Example 13. […]

[2] = system: BxPC3; assay: Cell cycle arrest of BxPC3 cells (propidium iodide FACS); format: cell-based, human; settings: 133.3 nM antibody, IGF-1 at 200 ng/ml, 24 hours
Experimental: Method: The ability of fully human IGF-1R antibodies to arrest cell cycle progression was assessed by FACS analysis; monitoring incorporation of propidium iodide in cultured BxPC3 cells. BxPC3 cells (4×10^5 cells/well) were plated into 6 well plates. After 24 hours, cells were changed to serum-free media (SFM) for the following 24 hours. […] After 24 hours, the cells were trypsinized and fixed with ethanol. DNA content was stained with propidium iodide (PI) prior to FACS analysis. An isotype matched antibody, IDEC-151 (human G4), was used as a negative control.

[3] = target: T1, human INSR(28-956)-His10 (Homo sapiens, UniProt P06213); assay: SPR, receptor ectodomain injected over immobilized antibodies: INSR; format: binding; settings: full-length fully human antibodies; up to 2 μM receptor
T1 construct: human INSR(28-956)-His10 (INSR (R&D systems)); purchased R & D Systems 1544-IR
Experimental: SPR analyses were performed using a Biacore3000. The instrument was set to 25° C. and assays performed with running buffer HBS-EP pH 7.2 purchased from Biacore (Biacore, Cat. No. BR-1001-88). The fully human antibodies, M13-C06, M14-C03, and M14-G11 were immobilized to ˜10,000 RU on Biacore CM5 Research Grade Sensor Chip surfaces using the standard NHS/EDC-amine reactive chemistry according to protocols supplied by Biacore. For immobilization, the antibodies were diluted to 40 μg/mL in a 10 mM Acetate pH 4.0 buffer. To investigate the relative kinetics of association and dissociation of the full-length ectodomains of human IGF-1R(1-902)-His10 (hIGF-1R-His10 (R&D systems)) and human INSR(28-956)-His10 (INSR (R&D systems)) to each of the human antibodies, increasing concentrations of hIGF-1R-His10 or INSR were injected over the sensorchip surfaces. The hIGF-1R-His10 concentration series ranged from 1.0 nM to 250 nM while the INSR concentrations ranged from 1.0 nM to 2 μM. All antibody surfaces were reliably regenerated with 100 mM Glycine, pH 2.0. […] Flow rates were 20 μl/min. (“His10” denotes a 10-residue histidine tag on the C-terminus of the constructs.)

[4] = target: T2, hIGF-1R-Fc (Homo sapiens, UniProt P08069); assay: IGF-1 and IGF-2 blocking ELISA-based competition assay; format: binding
T2 construct: (3) human IGF-1R(1-903)-Fc (hIGF-1R-Fc, Biogen Idec); host or cells: CHO
Experimental: hIGF-1R-Fc was biotinylated using EZ-Link Sulfo-NHS-LC-Biotin according to the protocol provided by the manufacturer (Pierce Cat. No. 21335). Biotinylated human IGF-1R-Fc at 5 μg/ml was added to the wells of SigmaScreen streptavidin-coated 96-well plates (Sigma, Cat. No. M5432-5EA; Sigma-Aldrich Corp. (St. Louis, Mo., USA)) at 100 μL/well and incubated overnight at 2-8° C. The plates were then washed four times with 200 μL/well PBST. […] Dilutions were made from 1.3 μM to 10 pM for M13-C06 and M14-C03, from 5.2 μM to […] for M14-G11, and from 2.6 μM to 10 pM for both P1E2 and αIR3. Human IGF-2 His was prepared at 320 nM in PBST, 1.0 mg/ml BSA. The antibodies were serial diluted (from […] to 5 pM for M13-C06 and M14-C03, from 5.2 μM to 5 pM for M14-G11 and αIR3, and from 5.2 μM to 20 pM for P1E2) using a solution of 320 nM IGF-2 His. The dilutions were added to the plates in duplicate at 100 μL/well and the plates were incubated at RT for 1 hour. The plates were then washed four times with 200 μL/well PBST. An HRP-conjugated anti-Histag antibody (Penta-His HRP Conjugate, QIAGEN, Cat. No. 1014992) was diluted 1:1000 in PBST and added to plates at 100 μL/well, and the plates were incubated at RT for one hour. The plates were then washed four times with 200 μL/well PBST. SureBlue Reserve TMB Microwell Peroxidase Substrate (KPL, Cat. No. 53-00-01) was added to plates at 100 μL/well followed by 1% phosphoric acid at 100 μL/well once the desired reaction was observed. The absorbance of each well was determined at 450 nm, and the results were normalized and plotted against the log of antibody concentration.

[5] = target: T3, Rhesus IGF-1R (Macaca mulatta, UniProt I2CWY3); assay: Binding to Rhesus IGF-1R expressed in CHO cells (flow cytometry, confocal)
T3 construct: expressed in transfected cells; host or cells: CHO cells
T3 sequence (I2CWY3 31-1367): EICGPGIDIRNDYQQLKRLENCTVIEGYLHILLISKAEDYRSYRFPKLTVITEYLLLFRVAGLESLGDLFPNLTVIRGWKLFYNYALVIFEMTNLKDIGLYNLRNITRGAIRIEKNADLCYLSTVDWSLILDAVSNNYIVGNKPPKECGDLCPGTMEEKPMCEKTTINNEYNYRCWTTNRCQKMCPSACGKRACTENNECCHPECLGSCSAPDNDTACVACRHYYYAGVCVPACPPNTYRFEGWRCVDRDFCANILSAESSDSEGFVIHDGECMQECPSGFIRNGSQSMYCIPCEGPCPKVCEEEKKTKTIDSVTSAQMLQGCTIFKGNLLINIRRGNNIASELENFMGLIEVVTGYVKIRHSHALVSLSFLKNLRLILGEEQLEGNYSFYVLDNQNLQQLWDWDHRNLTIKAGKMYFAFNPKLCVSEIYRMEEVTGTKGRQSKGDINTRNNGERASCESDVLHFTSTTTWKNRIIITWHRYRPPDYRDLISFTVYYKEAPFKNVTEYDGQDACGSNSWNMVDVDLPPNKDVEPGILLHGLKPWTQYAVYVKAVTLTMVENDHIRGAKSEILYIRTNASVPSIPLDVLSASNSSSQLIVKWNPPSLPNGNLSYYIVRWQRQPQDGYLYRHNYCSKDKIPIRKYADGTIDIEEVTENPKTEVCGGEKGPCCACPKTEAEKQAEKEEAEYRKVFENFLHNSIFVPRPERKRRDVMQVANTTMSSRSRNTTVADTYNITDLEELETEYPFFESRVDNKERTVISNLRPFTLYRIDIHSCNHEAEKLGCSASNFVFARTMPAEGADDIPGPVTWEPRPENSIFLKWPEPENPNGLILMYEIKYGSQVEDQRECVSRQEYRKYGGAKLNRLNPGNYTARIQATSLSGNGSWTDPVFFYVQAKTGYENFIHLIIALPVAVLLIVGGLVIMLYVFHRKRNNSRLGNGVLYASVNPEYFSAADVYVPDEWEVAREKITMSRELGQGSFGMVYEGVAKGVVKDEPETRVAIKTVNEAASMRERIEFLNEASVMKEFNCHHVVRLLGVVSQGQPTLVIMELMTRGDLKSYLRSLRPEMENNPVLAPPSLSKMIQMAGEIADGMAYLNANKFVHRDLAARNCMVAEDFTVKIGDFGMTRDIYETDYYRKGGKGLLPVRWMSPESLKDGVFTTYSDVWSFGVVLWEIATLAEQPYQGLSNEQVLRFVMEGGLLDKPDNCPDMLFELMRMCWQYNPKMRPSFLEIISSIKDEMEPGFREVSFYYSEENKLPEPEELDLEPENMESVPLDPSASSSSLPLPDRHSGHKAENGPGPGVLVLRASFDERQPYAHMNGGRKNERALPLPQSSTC
Experimental: (§1) The ability of anti-human IGF-1R antibodies to recognize the IGF-1R from non-human primates was tested. First Rhesus and cynomolgus monkey IGF-1R was cloned and expressed in CHO cells. The binding of all antibodies was determined by flow cytometry and confirmed by confocal microscopy.

[6] = target: T4, murine IGF-1R (Mus musculus, UniProt Q60751); assay: Binding to murine IGF-1R expressing CHO cells
T4 construct: expressed in transfected cells; host or cells: CHO cells
T4 sequence (Q60751 31-737 limits assumed): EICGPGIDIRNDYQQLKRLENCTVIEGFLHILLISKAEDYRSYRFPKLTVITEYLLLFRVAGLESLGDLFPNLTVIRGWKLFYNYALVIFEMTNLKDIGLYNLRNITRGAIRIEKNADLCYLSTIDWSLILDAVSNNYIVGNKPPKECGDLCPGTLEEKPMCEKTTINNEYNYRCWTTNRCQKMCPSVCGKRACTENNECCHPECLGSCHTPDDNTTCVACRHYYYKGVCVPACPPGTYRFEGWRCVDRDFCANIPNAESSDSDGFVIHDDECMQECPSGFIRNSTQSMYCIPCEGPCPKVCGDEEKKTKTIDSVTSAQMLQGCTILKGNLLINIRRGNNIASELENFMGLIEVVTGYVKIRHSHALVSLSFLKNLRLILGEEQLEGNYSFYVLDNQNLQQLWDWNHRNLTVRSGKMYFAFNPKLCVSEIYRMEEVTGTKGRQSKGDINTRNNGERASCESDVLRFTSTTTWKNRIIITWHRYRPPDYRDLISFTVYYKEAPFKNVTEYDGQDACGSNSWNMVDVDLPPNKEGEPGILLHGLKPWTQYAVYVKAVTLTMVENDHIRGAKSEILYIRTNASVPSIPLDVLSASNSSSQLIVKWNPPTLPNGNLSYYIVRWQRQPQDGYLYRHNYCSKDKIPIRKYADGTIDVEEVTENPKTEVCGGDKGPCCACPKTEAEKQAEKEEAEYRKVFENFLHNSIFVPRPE
T4 sequence (Q60751 742-1373 limits assumed): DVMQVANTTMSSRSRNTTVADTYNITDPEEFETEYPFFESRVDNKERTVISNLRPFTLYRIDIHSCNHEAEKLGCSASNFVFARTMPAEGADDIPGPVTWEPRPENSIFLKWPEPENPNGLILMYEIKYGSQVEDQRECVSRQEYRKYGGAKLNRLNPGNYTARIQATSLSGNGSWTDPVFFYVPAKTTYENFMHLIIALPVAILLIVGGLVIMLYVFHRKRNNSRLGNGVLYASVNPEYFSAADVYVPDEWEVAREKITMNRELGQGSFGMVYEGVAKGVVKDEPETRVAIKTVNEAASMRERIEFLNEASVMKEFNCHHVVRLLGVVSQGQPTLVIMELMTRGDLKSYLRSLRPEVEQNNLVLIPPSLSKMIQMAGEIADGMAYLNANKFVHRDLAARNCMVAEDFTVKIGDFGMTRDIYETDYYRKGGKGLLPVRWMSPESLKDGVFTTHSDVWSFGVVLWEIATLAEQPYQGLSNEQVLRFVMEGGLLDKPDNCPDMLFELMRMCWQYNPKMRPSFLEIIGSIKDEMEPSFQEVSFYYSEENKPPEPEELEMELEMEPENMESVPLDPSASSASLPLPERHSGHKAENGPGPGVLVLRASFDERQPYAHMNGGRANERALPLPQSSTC
Experimental: as §1

B1: M13-C06.G4.P.agly: full-length hinge-modified aglycosylated human gamma 4, kappa antibody with the binding domain of Fab M13-C06 (antibody)
heavy: EVQLLESGGGLVQPGGSLRLSCAASGFTFSIYRMQWVRQAPGKGLEWVSGISPSGGTTWYADSVKGRFTISRDNSKNTLYLQMNSLRAEDTAVYYCARWSGGSGYAFDIWGQGTMVTVSSASTKGPSVFPLAPCSRSTSESTAALGCLVKDYFPEPVTVSWNSGALTSGVHTFPAVLQSSGLYSLSSVVTVPSSSLGTKTYTCNVDHKPSNTKVDKRV[human IgG4 Fc with S228P T299A (EU numbers) not written out]
light: DIQMTQSPLSLSASVGDRVTITCQASRDIRNYLNWYQQKPGKAPKLLIYDASSLQTGVPSRFGGSGSGTDFSFTIGSLQPEDIATYYCQQFDSLPHTFGQGTKLEIKRTVAAPSVFIFPPSDEQLKSGTASVVCLLNNFYPREAKVQWKVDNALQSGNSQESVTEQDSKDSTYSLSSTLTLSKADYEKHKVYACEVTHQGLSSPVTKSFNRGEC
inhibition of IGF-1 and IGF-2 driven cell proliferation in H-23 [1]: showed inhibition
cell cycle arrest [2]: arrested the BxPC3 tumor cells at the G0/G1 phase

binding of INSR to immobilized antibody surface [3]: little binding activity
blockade of both ligands (IGF-1 and IGF-2) ([4]; saturating levels of antibody): 100%
B2: M14-G11: anti-IGF1-R antibody, competitive blocker of IGF-1 and IGF-2 (antibody, V domains shown)
VH: EVQLLESGGGLVQPGGSLRLSCAASGFTFSNYPMYWVRQAPGKGLEWVSRISSSGGRTVYADSVKGRFTISRDNSKNTLYLQMNSLRAEDTAVYYCARDRWSRSAAEYGLGGYWGQGTLVTVSS
VL: DIQMTQSPDSLAVSLGERATINCKSSQSVLYSSNNKNYLAWYQQKPGQPPKLLIYLASTRESGVPDRFSGSGSGTDFTLTISSLQAEDVAVYYCQQYYSTWTFGQGTKVEIK
modifications: Antibody variable heavy chain sequence; Antibody variable light chain sequence
blocking of IGF-1 binding to IGF-1R ([4]; 320 nM IGF-1 His): block both IGF-1 and IGF-2 in a competitive fashion
blocking of IGF-2 binding to IGF-1R ([4]; 320 nM IGF-2 His): block both IGF-1 and IGF-2 in a competitive fashion

binding to Rhesus IGF-1R [5]: specific binding activity
binding to murine IGF-1R expressing CHO cells [6]: binding
B3: M14-G11.G4.P: full-length human IgG4.P version of Fab M14-G11 (antibody, V domains shown)
VH: EVQLLESGGGLVQPGGSLRLSCAASGFTFSNYPMYWVRQAPGKGLEWVSRISSSGGRTVYADSVKGRFTISRDNSKNTLYLQMNSLRAEDTAVYYCARDRWSRSAAEYGLGGYWGQGTLVTVSS
VL: DIQMTQSPDSLAVSLGERATINCKSSQSVLYSSNNKNYLAWYQQKPGQPPKLLIYLASTRESGVPDRFSGSGSGTDFTLTISSLQAEDVAVYYCQQYYSTWTFGQGTKVEIK
